This is one part of the list. Cut-off read from the data, not from the text of the source: active = 3.2 or more and inactive = the rest. The signal is at background level for most entries.
Assays:
Assay in all cases: enrichment score (SH2-bound / input frequency) (ratio); bacterial display of known human phosphotyrosine sites (pTyr-Var adds point mutants) read by sequencing; higher = stronger binding; tyrosines were phosphorylated by kinases first
Conditions in all cases: peptide library: pTyr-Var
SHP2 C-SH2 domain E139D = target: SHP2 C-SH2 domain E139D
[1] = target: SHP2 C-SH2 domain wild-type
SHP2 N-SH2 domain L43F = target: SHP2 N-SH2 domain L43F
SHP2 N-SH2 domain T42A = target: SHP2 N-SH2 domain T42A
SHP2 N-SH2 domain T52S = target: SHP2 N-SH2 domain T52S
[2] = target: SHP2 N-SH2 domain wild-type

Measured: enrichment score
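Note: displayed peptides selected on beads carrying the immobilized SH2 domain, with library peptides lacking any tyrosine serving as negative controls.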

KATKGYLDDPT [G6PD_Y322_E317K]
inactive: SHP2 C-SH2 domain E139D 0.711 | [1] 0.53 | SHP2 N-SH2 domain L43F 0.601 | SHP2 N-SH2 domain T42A 0.618 | SHP2 N-SH2 domain T52S 0.727 | [2] 0.721

GILDVYIFLGP [GAA_Y340]
inactive: SHP2 C-SH2 domain E139D 1.11 | [1] 1.34 | SHP2 N-SH2 domain L43F 1.14 | SHP2 N-SH2 domain T42A 1.05 | SHP2 N-SH2 domain T52S 0.929 | [2] 1.3

KFMVGYEMLAK [GALT_Y339_Q344K]
inactive: SHP2 C-SH2 domain E139D 1.38 | [1] 1.19 | SHP2 N-SH2 domain L43F 1.24 | SHP2 N-SH2 domain T42A 1.28 | SHP2 N-SH2 domain T52S 1.24 | [2] 1.21

KLPDAYEPLIL [G6PD_Y437_R439P]
inactive: SHP2 C-SH2 domain E139D 0.849 | [1] 0.821 | SHP2 N-SH2 domain L43F 0.695 | SHP2 N-SH2 domain T42A 0.666 | SHP2 N-SH2 domain T52S 0.706 | [2] 0.987

EATKVYLDDPT [G6PD_Y322_G321V]
inactive: SHP2 C-SH2 domain E139D 0.664 | [1] 0.724 | SHP2 N-SH2 domain L43F 0.85 | SHP2 N-SH2 domain T42A 0.652 | SHP2 N-SH2 domain T52S 0.695 | [2] 0.876

PTATSYNPNLA [GABRA1_Y375_T376N]
inactive: SHP2 C-SH2 domain E139D 0.393 | [1] 0.502 | SHP2 N-SH2 domain L43F 0.717 | SHP2 N-SH2 domain T42A 0.449 | SHP2 N-SH2 domain T52S 0.623 | [2] 0.471

KLPDAYERFIL [G6PD_Y437_L440F]
inactive: SHP2 C-SH2 domain E139D 1.01 | [1] 1.03 | SHP2 N-SH2 domain L43F 0.878 | SHP2 N-SH2 domain T42A 0.98 | SHP2 N-SH2 domain T52S 0.903 | [2] 1.07

LFSLGYHQSRW [GANAB_Y396]
inactive: SHP2 C-SH2 domain E139D 1.5 | [1] 1.9 | SHP2 N-SH2 domain L43F 2.24 | SHP2 N-SH2 domain T42A 1.57 | SHP2 N-SH2 domain T52S 1.74 | [2] 1.73

PADCRYFTFPQ [GAMT_Y222_A224T_YF]
inactive: SHP2 C-SH2 domain E139D 0.88 | [1] 0.969 | SHP2 N-SH2 domain L43F 0.825 | SHP2 N-SH2 domain T42A 1.09 | SHP2 N-SH2 domain T52S 1.13 | [2] 1.02

PADCRYFAFPQ [GAMT_Y222_YF]
inactive: SHP2 C-SH2 domain E139D 1.16 | [1] 1.21 | SHP2 N-SH2 domain L43F 0.993 | SHP2 N-SH2 domain T42A 0.993 | SHP2 N-SH2 domain T52S 0.931 | [2] 1.11

KFMVGYEMIAQ [GALT_Y339_L342I]
inactive: SHP2 C-SH2 domain E139D 1.52 | [1] 1.39 | SHP2 N-SH2 domain L43F 1.32 | SHP2 N-SH2 domain T42A 1.54 | SHP2 N-SH2 domain T52S 1.79 | [2] 1.22

KAIDMYLMGCF [GABRB2_Y308]
inactive: SHP2 C-SH2 domain E139D 0.648 | [1] 0.786 | SHP2 N-SH2 domain L43F 0.801 | SHP2 N-SH2 domain T42A 0.602 | SHP2 N-SH2 domain T52S 0.676 | [2] 0.827

FASAEYQEALS [GALNS_Y461]
inactive: SHP2 C-SH2 domain E139D 0.664 | [1] 0.516 | SHP2 N-SH2 domain L43F 0.755 | SHP2 N-SH2 domain T42A 0.604 | SHP2 N-SH2 domain T52S 0.687 | [2] 0.584

PNKAVYTKMMT [G6PD_Y401_E398K]
inactive: SHP2 C-SH2 domain E139D 1.11 | [1] 2.04 | SHP2 N-SH2 domain L43F 1.04 | SHP2 N-SH2 domain T42A 2.29 | SHP2 N-SH2 domain T52S 0.737 | [2] 0.828

HVSISYDIPLT [GAB1_Y307_P311L]
inactive: SHP2 C-SH2 domain E139D 1.18 | [1] 1.27 | SHP2 N-SH2 domain L43F 1.31 | SHP2 N-SH2 domain T42A 2.06 | SHP2 N-SH2 domain T52S 1.1 | [2] 1.23

GRSTCYWPRPR [GAGE12J_Y10_Y9C]
inactive: SHP2 C-SH2 domain E139D 0.239 | [1] 0.205 | SHP2 N-SH2 domain L43F 0.183 | SHP2 N-SH2 domain T42A 0.227 | SHP2 N-SH2 domain T52S 0.231 | [2] 0.238

FASVEYQEALS [GALNS_Y461_A459V]
inactive: SHP2 C-SH2 domain E139D 0.699 | [1] 0.711 | SHP2 N-SH2 domain L43F 0.708 | SHP2 N-SH2 domain T42A 0.749 | SHP2 N-SH2 domain T52S 0.745 | [2] 0.691

HLPAGYIIPLQ [GAA_Y822_R819P]
inactive: SHP2 C-SH2 domain E139D 1.93 | [2] 1.9
active: [1] 5.1 | SHP2 N-SH2 domain L43F 5.75 | SHP2 N-SH2 domain T42A 3.4 | SHP2 N-SH2 domain T52S 6.78

TGVRDYIHVVD [GALE_Y241]
inactive: SHP2 C-SH2 domain E139D 1.03 | [1] 0.891 | SHP2 N-SH2 domain L43F 0.918 | SHP2 N-SH2 domain T42A 0.688 | SHP2 N-SH2 domain T52S 0.737 | [2] 0.936

RFMVGYEMLAQ [GALT_Y339_K334R]
inactive: SHP2 C-SH2 domain E139D 1.34 | [1] 1.13 | SHP2 N-SH2 domain L43F 1.53 | SHP2 N-SH2 domain T42A 1.4 | SHP2 N-SH2 domain T52S 1.43 | [2] 1.27

WNDPDYMDSRR [GAA_Y407_L405P]
inactive: SHP2 C-SH2 domain E139D 0.824 | [1] 1.05 | SHP2 N-SH2 domain L43F 1.02 | SHP2 N-SH2 domain T42A 0.832 | SHP2 N-SH2 domain T52S 1 | [2] 1.1

ADCRFYTFPQM [GAMT_Y223_A224T_YF]
inactive: SHP2 C-SH2 domain E139D 0.79 | [1] 1.44 | SHP2 N-SH2 domain L43F 1.48 | SHP2 N-SH2 domain T42A 0.877 | SHP2 N-SH2 domain T52S 0.936 | [2] 1.36

EFENSYIFDIN [GAB1_Y83]
inactive: SHP2 C-SH2 domain E139D 0.665 | [1] 0.636 | SHP2 N-SH2 domain L43F 0.537 | SHP2 N-SH2 domain T42A 0.482 | SHP2 N-SH2 domain T52S 0.647 | [2] 0.585

EILDVYIFLGP [GAA_Y340_G335E]
inactive: SHP2 C-SH2 domain E139D 0.965 | [1] 1.03 | SHP2 N-SH2 domain L43F 0.909 | SHP2 N-SH2 domain T42A 1.09 | SHP2 N-SH2 domain T52S 0.759 | [2] 1.13

KVIDMYLMGCF [GABRB2_Y308_A304V]
inactive: SHP2 C-SH2 domain E139D 1.18 | [1] 1.81 | SHP2 N-SH2 domain L43F 1.41 | SHP2 N-SH2 domain T42A 1.11 | SHP2 N-SH2 domain T52S 1.33 | [2] 1.78

RILDVYIFLGP [GAA_Y340_G335R]
inactive: SHP2 C-SH2 domain E139D 0.841 | [1] 1.18 | SHP2 N-SH2 domain L43F 0.825 | SHP2 N-SH2 domain T42A 0.921 | SHP2 N-SH2 domain T52S 0.879 | [2] 0.82

MKKKTYAMGGG [GAN_Y424_I423T]
inactive: SHP2 C-SH2 domain E139D 0.794 | [1] 0.627 | SHP2 N-SH2 domain L43F 0.888 | SHP2 N-SH2 domain T42A 0.846 | SHP2 N-SH2 domain T52S 1.11 | [2] 0.6

KPSLKYVTFGN [GALNTL5_Y404_G401S_YF]
inactive: SHP2 C-SH2 domain E139D 0.797 | [1] 0.594 | SHP2 N-SH2 domain L43F 1.25 | SHP2 N-SH2 domain T42A 1.41 | SHP2 N-SH2 domain T52S 1.34 | [2] 0.772

GRSTYYWPSPR [GAGE12J_Y10_R13S]
inactive: SHP2 C-SH2 domain E139D 0.548 | [1] 0.532 | SHP2 N-SH2 domain L43F 0.526 | SHP2 N-SH2 domain T42A 0.488 | SHP2 N-SH2 domain T52S 0.587 | [2] 0.622

KPGLKYVTYGN [GALNTL5_Y404]
inactive: SHP2 C-SH2 domain E139D 1.42 | [1] 1.19 | SHP2 N-SH2 domain L43F 1.88 | SHP2 N-SH2 domain T42A 1.76 | SHP2 N-SH2 domain T52S 1.74 | [2] 1.26

VAMELYVFRGV [GAN_Y471_G474R]
inactive: SHP2 C-SH2 domain E139D 1.35 | [1] 1.38 | SHP2 N-SH2 domain L43F 1.06 | SHP2 N-SH2 domain T42A 1.19 | SHP2 N-SH2 domain T52S 1.05 | [2] 1.2

DVFRQYASLRG [GANAB_Y379_T383R]
inactive: SHP2 C-SH2 domain E139D 1.61 | SHP2 N-SH2 domain L43F 0.426 | SHP2 N-SH2 domain T42A 0.971 | SHP2 N-SH2 domain T52S 0.551 | [2] 0.591
active: [1] 4.07

KPGLKYVTFGN [GALNTL5_Y404_YF]
inactive: SHP2 C-SH2 domain E139D 1.5 | [1] 1.55 | SHP2 N-SH2 domain L43F 2.78 | SHP2 N-SH2 domain T42A 2.94 | SHP2 N-SH2 domain T52S 3.06 | [2] 1.76

RGRSTCYWPRP [GAGE12J_Y9_Y9C]
inactive: SHP2 C-SH2 domain E139D 0.242 | [1] 0.297 | SHP2 N-SH2 domain L43F 0.276 | SHP2 N-SH2 domain T42A 0.234 | SHP2 N-SH2 domain T52S 0.251 | [2] 0.479

DTDSSYCIPIA [GAB1_Y373_T377I]
inactive: SHP2 C-SH2 domain E139D 0.864 | [1] 0.865 | SHP2 N-SH2 domain L43F 0.986 | SHP2 N-SH2 domain T42A 0.621 | SHP2 N-SH2 domain T52S 0.772 | [2] 1.01

EFENSCIFDIN [GAB1_Y83_Y83C]
inactive: SHP2 C-SH2 domain E139D 0.789 | [1] 0.77 | SHP2 N-SH2 domain L43F 0.676 | SHP2 N-SH2 domain T42A 0.878 | SHP2 N-SH2 domain T52S 0.74 | [2] 0.655

WNDLDYVDSRR [GAA_Y407_M408V]
inactive: SHP2 C-SH2 domain E139D 0.892 | [1] 0.79 | SHP2 N-SH2 domain L43F 0.761 | SHP2 N-SH2 domain T42A 0.837 | SHP2 N-SH2 domain T52S 0.718 | [2] 0.702
